We go through 28 compounds from the antibiotic and cytotoxicity screens of Wong et al. (2023).

This is one part of the list.

One test has as its system HSkMC. In words: cytotoxicity call (relative viability < 0.9). The following applies: 10 µM.
The test system of the next test is HepG2. The experiment in a line: cytotoxicity call (relative viability < 0.9). The following applies: 10 µM.
The subject of another test is S. aureus RN4220. The experiment in a line: growth inhibition call (relative growth <= 0.2). Conditions: 50 µM.

Regarding `C[C@H](CO)N1C[C@H](C)[C@H](CN(C)CC2CC2)OCCCC[C@H](C)Oc2ccc(NC(=O)NC3CCCCC3)cc2C1=O`, the cytotoxicity call in the test on HSkMC and with HepG2 was “inactive” in each case. Besides, the growth inhibition call with S. aureus RN4220 is “inactive”.

For the compound `CCS(=O)(=O)N1C[C@]2(C1)CN([C@@H](CO)c1[nH]c3cc(ccc3c12)OC)S(=O)(=O)c1cn(cn1)C`, the cytotoxicity call with HSkMC and in the test with HepG2 was “inactive” throughout. Besides, the growth inhibition call in the test on S. aureus RN4220 is “inactive”.

On to `Cc1noc(C)c1S(=O)(=O)N(C)C[C@H]1Oc2ccc(N(C)C)cc2CC(=O)N([C@H](C)CO)C[C@@H]1C`, for which the cytotoxicity call with HSkMC and in the test with HepG2 was “inactive” throughout. The growth inhibition call in the test on S. aureus RN4220 was “inactive”.

As to `C[C@H](CO)N1C[C@H](C)[C@@H](CN(C)C(=O)Nc2ccc(C(F)(F)F)cc2)Oc2c(NC(=O)c3nc4ccccc4s3)cccc2C1=O`, the cytotoxicity call in the test on HSkMC and in the test with HepG2 was “inactive” throughout. The growth inhibition call with S. aureus RN4220 is “inactive”.

`C[C@@H]1CCCCO[C@H](CN(C)C(=O)Nc2cccc3ccccc23)[C@H](C)CN([C@H](C)CO)C(=O)c2cc(N(C)C)ccc2O1`: the cytotoxicity call in the test with HSkMC and in the test on HepG2 was “inactive” each time. In addition, in the test with S. aureus RN4220, the growth inhibition call was “inactive”.

With `CS(C)(=O)=O`, the cytotoxicity call in the test on HSkMC is “inactive”. In addition, the cytotoxicity call with HepG2 was “active”. The growth inhibition call in the test with S. aureus RN4220 is “inactive”.

As to `CCC1(C)OC(=O)N(C)C1=O` (centres undefined), the cytotoxicity call in the test with HSkMC and with HepG2 was “inactive” in each case. Also, in the test on S. aureus RN4220, the growth inhibition call is “inactive”.

For `CNCc1cnc(NC)nc1`, the cytotoxicity call with HSkMC and with HepG2 was “inactive” throughout. Moreover, the growth inhibition call in the test with S. aureus RN4220 is “inactive”.

As to `COc1ccc(S(=O)(=O)N(C)C[C@H]2OCCCC[C@H](C)Oc3ccc(NC(=O)Nc4ccc5c(c4)OCO5)cc3C(=O)N([C@H](C)CO)C[C@H]2C)cc1`, the cytotoxicity call in the test with HSkMC and in the test on HepG2 was “inactive” in each case. The growth inhibition call with S. aureus RN4220 is “inactive”.

As to `COc1ccc(NC(=O)Nc2ccc3c(c2)C(=O)N([C@H](C)CO)C[C@@H](C)[C@@H](CN(C)C(=O)Nc2cccc4ccccc24)O3)cc1`, the cytotoxicity call in the test on HSkMC is “active”. Also, the cytotoxicity call with HepG2 was “inactive”. Further, in the test on S. aureus RN4220, the growth inhibition call was “inactive”.

`C[C@@H]1CCCCO[C@@H](CN(C)CC2CC2)[C@H](C)CN([C@H](C)CO)C(=O)c2cc(NC(=O)C3CCCCC3)ccc2O1`: the cytotoxicity call in the test with HSkMC and with HepG2 was “inactive” throughout. In the test on S. aureus RN4220, the growth inhibition call is “inactive”.

With `COc1ccc(S(=O)(=O)Nc2ccc3c(c2)C(=O)N([C@H](C)CO)C[C@H](C)[C@@H](CN(C)C(=O)c2ccccc2)OCCCC[C@H](C)O3)cc1`, the cytotoxicity call in the test on HSkMC and with HepG2 was “inactive” throughout. For the same compound, the growth inhibition call in the test with S. aureus RN4220 is “inactive”.

Regarding `C[C@@H]1CCCCO[C@@H](CN(C)C(=O)Nc2ccc(C(F)(F)F)cc2)[C@H](C)CN([C@H](C)CO)C(=O)c2cc(NS(=O)(=O)c3ccc(F)cc3)ccc2O1`, the cytotoxicity call in the test on HSkMC and with HepG2 was “inactive” in each case. In addition, the growth inhibition call with S. aureus RN4220 is “inactive”.

On to `C[C@@H]1CN([C@@H](C)CO)C(=O)CCCn2nncc2CO[C@H]1CN(C)S(=O)(=O)c1ccc(-n2cccn2)cc1`, for which the cytotoxicity call in the test with HSkMC and in the test on HepG2 was “inactive” throughout. The growth inhibition call in the test with S. aureus RN4220 was “inactive”.

`C[C@@H]1CCCCO[C@H](CN(C)S(=O)(=O)c2ccc(F)cc2)[C@H](C)CN([C@H](C)CO)C(=O)c2cc(NS(=O)(=O)c3ccc(Cl)cc3)ccc2O1`: the cytotoxicity call with HSkMC and in the test on HepG2 was “inactive” in each case. Moreover, in the test with S. aureus RN4220, the growth inhibition call is “inactive”.

As for `COc1ccc(S(=O)(=O)N(C)C[C@@H]2Oc3ccc(NC(=O)Nc4cc(Cl)cc(Cl)c4)cc3CC(=O)N([C@@H](C)CO)C[C@@H]2C)cc1Cl`, the cytotoxicity call with HSkMC and in the test with HepG2 was “active” each time. Besides, the growth inhibition call with S. aureus RN4220 is “inactive”.

As to `O=C(O)c1cc(O)c(O)c(O)c1`, the cytotoxicity call with HSkMC is “active”. For the same compound, the cytotoxicity call in the test on HepG2 is “inactive”. In the test on S. aureus RN4220, the growth inhibition call is “inactive”.

Regarding `C[C@@H]1CN([C@@H](C)CO)C(=O)c2cccc(NS(=O)(=O)c3cccs3)c2O[C@@H]1CN(C)Cc1ccncc1`, the cytotoxicity call in the test on HSkMC and in the test on HepG2 was “inactive” in each case. Also, in the test on S. aureus RN4220, the growth inhibition call is “inactive”.

For the compound `C[C@@H]1CN([C@@H](C)CO)C(=O)Cc2cc(NC(=O)Cc3cn(C)c4ccccc34)ccc2O[C@H]1CN(C)C`, the cytotoxicity call in the test on HSkMC and in the test on HepG2 was “inactive” in each case. Further, in the test on S. aureus RN4220, the growth inhibition call is “inactive”.

On to `COc1ccccc1-c1ccc2c(c1)O[C@@H](CN(C)CC1CCOCC1)[C@H](C)CN([C@@H](C)CO)S2(=O)=O`, for which the cytotoxicity call in the test with HSkMC and with HepG2 was “inactive” each time. Besides, the growth inhibition call in the test with S. aureus RN4220 was “inactive”.

For `C[C@H]1CN([C@@H](C)CO)C(=O)Cc2cc(NC(=O)CCCCCC(=O)Nc3ccccc3N)ccc2O[C@@H]1CN(C)Cc1ccc(Oc2ccccc2)cc1`, the cytotoxicity call in the test on HSkMC and in the test on HepG2 was “inactive” throughout. The growth inhibition call in the test with S. aureus RN4220 was “inactive”.

On to `CO[C@H]1CN(C)C(=O)c2cc(NC(C)=O)ccc2OC[C@H](C)N(S(=O)(=O)c2cn(C)cn2)C[C@H]1C`, for which the cytotoxicity call with HSkMC and in the test on HepG2 was “inactive” throughout. Moreover, the growth inhibition call in the test on S. aureus RN4220 was “inactive”.

Regarding `O=C(NC1CCCCC1)N1c2ccccc2C=Cc2ccccc21`, the cytotoxicity call with HSkMC and in the test on HepG2 was “inactive” each time. Further, the growth inhibition call in the test with S. aureus RN4220 was “inactive”.

Consider `CCCN(C)C[C@H]1OCCCC[C@@H](C)Oc2ccc(NC(=O)c3ccccc3)cc2C(=O)N([C@@H](C)CO)C[C@H]1C`, for which the cytotoxicity call in the test on HSkMC and with HepG2 was “inactive” each time. Also, in the test with S. aureus RN4220, the growth inhibition call was “inactive”.

Take `COc1ccc(S(=O)(=O)Nc2ccc3c(c2)C(=O)N([C@H](C)CO)C[C@H](C)[C@@H](CN(C)C(=O)CCC(F)(F)F)OCCCC[C@H](C)O3)cc1`: the cytotoxicity call in the test on HSkMC and in the test with HepG2 was “inactive” throughout. The growth inhibition call with S. aureus RN4220 was “inactive”.

Consider `Cc1noc(C)c1S(=O)(=O)N(C)C[C@@H]1Oc2ccc(NC(=O)Cc3ccccc3)cc2CC(=O)N([C@H](C)CO)C[C@H]1C`, for which the cytotoxicity call with HSkMC and with HepG2 was “inactive” in each case. In addition, the growth inhibition call in the test on S. aureus RN4220 is “inactive”.

As to `O=C(C[C@@H]1C=C[C@@H](NC(=O)c2cccnc2)[C@@H](CO)O1)NCCN1CCCCC1`, the cytotoxicity call with HSkMC and in the test on HepG2 was “inactive” each time. In addition, in the test on S. aureus RN4220, the growth inhibition call is “inactive”.

As to `COc1ccc(S(=O)(=O)N(C)C[C@H]2Oc3c(NC(=O)C4CC4)cccc3C(=O)N([C@H](C)CO)C[C@H]2C)cc1`, the cytotoxicity call in the test on HSkMC (human skeletal muscle cells) and with HepG2 was “inactive” each time. The growth inhibition call in the test on S. aureus RN4220 was “inactive”.
